Source: the supplement of paper PMC11283458
Structures can show the parent of a compound that is named as a salt. The list shows a part of the results. Repeats are few or missing, and single values can be far off.

Tests used:
[1] = system: Mef2d microexon dual Nano/Firefly luciferase splicing reporter in Neuro-2a cells; test: B-score of Firefly/Nano luminescence ratio, V1 Mef2d microexon reporter (B-score (plate-normalised)); higher = more Mef2d microexon inclusion; conditions: 24 h
[2] = system: Mef2d microexon dual Nano/Firefly luciferase splicing reporter in Neuro-2a cells; test: B-score of Nano/Firefly luminescence ratio, V2 Mef2d microexon reporter (B-score (plate-normalised)); higher = more Mef2d microexon inclusion; conditions: 24 h
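For B-score of Nano/Firefly luminescence ratio, V2 Mef2d microexon reporter in this document: compounds at 4 µM (PKI library 0.5 µM) on Dox-inducible N2A Flp-In cells with PEST-tagged luciferases, 384-well plates, B-score from per-plate median-polish residual over median absolute residual.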

CC1=CC(C)(C)Nc2ccc(OC(=O)CCC3CCCCC3)cc21 (4 µM)
B-score [1]: -3.14 | B-score [2]: -6.6

CO[C@H]1O[C@@H]2O[C@@]3(C)CC[C@H]4[C@H](C)CC[C@@H]([C@H]1C)[C@@]24OO3 (4 µM)
B-score [1]: 18.3 | B-score [2]: 8.32

COc1cccc2cc(-c3nc(C4CCC(C(=O)O)CC4)n4ncnc(N)c34)[nH]c12.Cl (centres undefined) [OSI-027 hydrochloride] (0.5 µM)
B-score [1]: -4.61 | B-score [2]: -3.57

O=C(Nc1ccc(Cl)cc1)Oc1ccc(Br)cc1C1SCCS1 (4 µM)
B-score [1]: 3.17 | B-score [2]: 2.52

CC(=Nc1ccccc1N)c1c(C)cc(=O)n(O)c1O (4 µM)
B-score [1]: 13.5 | B-score [2]: 1.98

N#CC1(C#N)C(C#N)(C#N)C12CCCCC2 (4 µM)
B-score [1]: -1.28 | B-score [2]: -8.65

Cc1cccc(N2CCN(C(=O)c3cc(F)cc(F)c3)CC2C)c1 (centres undefined) (4 µM)
B-score [1]: -3.22 | B-score [2]: -7

NC(=S)N/N=C/c1ccc(-c2cccc(Cl)c2Cl)o1 (4 µM)
B-score [1]: 8.9 | B-score [2]: 15.2

O=C(c1cncn1-c1ccccc1)N1CCN(c2cccc(C(F)(F)F)c2)CC1 (4 µM)
B-score [1]: -9.31 | B-score [2]: -10.2

Cc1cccc(Nc2nc3nonc3nc2Nc2ccc(F)cc2)c1C (4 µM)
B-score [1]: -3.01 | B-score [2]: -3.1

O=[N+]([O-])c1c(Oc2ccc(F)c(F)c2)nc2sccn12 (4 µM)
B-score [1]: -2.08 | B-score [2]: -5.83

Cc1cccc(N2CCN(C(=O)c3c(-c4ccccc4)noc3C)CC2)c1C (4 µM)
B-score [1]: -6.52 | B-score [2]: -9.52

O=[N+]([O-])c1ccc(CS(=O)(=O)c2ccc(Cl)cc2)cc1 (4 µM)
B-score [1]: -0.179 | B-score [2]: 19.7

Cc1onc(-c2c(Cl)cccc2Cl)c1C(=O)SCC(=O)Nc1ccc(F)cc1 (4 µM)
B-score [1]: -3.03 | B-score [2]: -3.88

CC(=O)OCC(=O)[C@@]1(O)CC[C@H]2[C@@H]3CCC4=CC(=O)CC[C@]4(C)[C@H]3C(=O)C[C@@]21C [Cortisone 21-acetate] (4 µM)
B-score [1]: -4.16 | B-score [2]: -2.65

O=C(NOC[C@H](O)CO)c1ccc(F)c(F)c1Nc1ccc(I)cc1F (0.5 µM)
B-score [1]: 4.57 | B-score [2]: 3.8

COc1ccc(C(=O)C=C(C(=O)c2ccccc2)c2ccccc2)cc1CN1CCOCC1 (4 µM)
B-score [1]: -7.33 | B-score [2]: -2.21

C[C@@H](Oc1cc(-n2cnc3ccc(CN4CCN(C)CC4)cc32)sc1C(N)=O)c1ccccc1C(F)(F)F (0.5 µM)
B-score [1]: -5.46 | B-score [2]: -3.97

CCOC(=O)c1cc(-c2csc(Nc3ccccc3)n2)on1 (4 µM)
B-score [1]: 4.72 | B-score [2]: 1.28

N#CC1(C#N)C(c2ccc(Br)s2)C(C(=O)c2ccccc2)N2c3ccccc3C=CC21 (centres undefined) (4 µM)
B-score [1]: -5.7 | B-score [2]: -8.82

Cc1ccc(NC(=O)c2cccc(C(C)(C)C#N)c2)cc1Nc1ccc2ncn(C)c(=O)c2c1 (0.5 µM)
B-score [1]: 4.64 | B-score [2]: 5.89

COC(=O)/C=C/c1cc(O)ccc1O [Methyl 2,5-dihydroxycinnamate] (4 µM)
B-score [1]: -2.6 | B-score [2]: -8.19

CCN(CC)CCOC(=O)C1(c2ccc([N+](=O)[O-])cc2)CCCC1 [Nitrocaramiphen hydrochloride] (4 µM)
B-score [1]: 27.8 | B-score [2]: 15.7

O=C1c2c(O)ccc(O)c2C(=O)c2c(NCCNCCO)ccc(NCCNCCO)c21 [Mitoxantrone] (4 µM)
B-score [1]: -12.7 | B-score [2]: -13.8

O=C1C=CC(=O)N1c1ccc(Cl)c(Cl)c1 (4 µM)
B-score [1]: 3.37 | B-score [2]: 4.87

COc1ccccc1C1CCN(c2ccc(C=CC(=O)NCc3ccccc3)cc2[N+](=O)[O-])CC1 (4 µM)
B-score [1]: 4.14 | B-score [2]: 1.74

CC(=O)O[C@H]1C(=O)[C@@]2(C)[C@H]([C@H](OC(=O)c3ccccc3)[C@]3(O)C[C@H](OC(=O)[C@H](O)[C@@H](NC(=O)c4ccccc4)c4ccccc4)C(C)=C1C3(C)C)[C@]1(OC(C)=O)CO[C@@H]1C[C@@H]2O [Taxol] (4 µM)
B-score [1]: -3.6 | B-score [2]: -11.9

CS(=O)(=O)N1CCN(Cc2cc3nc(-c4cccc5[nH]ncc45)nc(N4CCOCC4)c3s2)CC1 [GDC-0941, Pictilisib, Pictrelisib, RG-7321] (0.5 µM)
B-score [1]: -4.13 | B-score [2]: -2.51

N#Cc1c(O)nsc1Nc1ccccc1Cl (4 µM)
B-score [1]: -3.04 | B-score [2]: -1.33

C[N+](C)(C)CCC(=O)c1cccc2ccccc12 [2-(alpha-Naphthoyl)ethyltrimethylammonium iodide] (4 µM)
B-score [1]: 10.2 | B-score [2]: 2.35

Cc1cc(-c2ccc(N=Cc3cccc([N+](=O)[O-])c3)c(C)c2)ccc1N=Cc1cccc([N+](=O)[O-])c1 (4 µM)
B-score [1]: -6.01 | B-score [2]: -4.5

CCc1cc2c(cc1N1CCC(N3CCOCC3)CC1)C(C)(C)c1[nH]c3cc(C#N)ccc3c1C2=O (0.5 µM)
B-score [1]: -4.29 | B-score [2]: -4.69

CN(Cc1cnc2nc(N)nc(N)c2n1)c1ccc(C(=O)N[C@@H](CCC(=O)O)C(=O)O)cc1.O (4 µM)
B-score [1]: -5.71 | B-score [2]: -12.8

CCn1ncc(C2=NOC(C(=O)NCc3ccc(Cl)cc3)C2)c1C (centres undefined) (4 µM)
B-score [1]: -2.79 | B-score [2]: -7.27

CC(C)n1nc(-c2cc3cc(O)ccc3[nH]2)c2c(N)ncnc21 [Pp242, Torkinib, PP-242] (0.5 µM)
B-score [1]: -8.36 | B-score [2]: -6.02

COc1cccc2c1C(=O)c1c(O)c3c(c(O)c1C2=O)C[C@@](O)(C(=O)CO)C[C@@H]3O[C@H]1C[C@H](N)[C@H](O)[C@H](C)O1 [Doxorubicin hydrochloride] (4 µM)
B-score [1]: -9.08 | B-score [2]: -9.87

Cc1ccc(S(=O)(=O)N/N=C/c2cc(Cl)ccc2O)cc1 (4 µM)
B-score [1]: 28.7 | B-score [2]: 57.4

COc1ccc(OC)c(NCc2c(OC)ccc3ccccc23)c1 (4 µM)
B-score [1]: -10.5 | B-score [2]: -11.1

O=S(=O)(Nc1ccc(-n2nc(C(F)(F)F)cc2C(F)(F)F)cc1)c1ccc(Cl)c(Cl)c1 (4 µM)
B-score [1]: 5.71 | B-score [2]: 4.97

COc1cc(C(=O)ON=C(N)c2ccc3c(c2)OCO3)cc(OC)c1OC (4 µM)
B-score [1]: 5.7 | B-score [2]: 2.69

Cc1ccc(S(=O)(=O)Nc2ccc3ncccc3c2)cc1 (4 µM)
B-score [1]: 4.22 | B-score [2]: 5.29

O=C(NC[C@H](O)CO)c1ccncc1Nc1ccc(I)cc1F (0.5 µM)
B-score [1]: 5.67 | B-score [2]: 5.05

Cc1ccc(NC(=O)C(C)NC(=O)c2cccc(C)c2)nc1 (centres undefined) (4 µM)
B-score [1]: -4.44 | B-score [2]: -13.4

C=CCN(c1ccccc1C1=N/C(=C\c2cccc(C)c2)C(=O)O1)S(=O)(=O)c1ccc(C)cc1 (4 µM)
B-score [1]: -1.54 | B-score [2]: -5

Cc1cc(Nc2cc(N3CCN(C)CC3)nc(Sc3ccc(NC(=O)C4CC4)cc3)n2)n[nH]1 [VX-680, MK-0457, Tozasertib, VX6] (0.5 µM)
B-score [1]: -4.01 | B-score [2]: -4.36

CN1CC[C@@H](c2c(O)cc(O)c3c(=O)cc(-c4ccccc4Cl)oc23)[C@@H]1CO [(+)-P276, P276-00, Riviciclib hydrochloride] (0.5 µM)
B-score [1]: 6.91 | B-score [2]: 6.43

C(=NNc1ccc2ccccc2n1)c1ccccn1 (4 µM)
B-score [1]: 13.1 | B-score [2]: 2.07

O=C1c2ccccc2S(=O)c2ccccc2S(=O)(=O)N1Cc1ccccc1 (centres undefined) (4 µM)
B-score [1]: -2.78 | B-score [2]: -2.72

CC1=C/C(=N/OS(=O)(=O)c2ccc(C)cc2)C(C(C)C)=CC1=O (4 µM)
B-score [1]: -1.78 | B-score [2]: -4.61

O=[N+]([O-])c1ccc(N2CCCN(C(=S)Nc3ccc(Cl)cc3Cl)CC2)nc1 (4 µM)
B-score [1]: -2.91 | B-score [2]: -4.72

O=C(Nc1ccc(N2CCOCC2)cc1N1CCOCC1)c1cnn(-c2ccccc2)n1 (4 µM)
B-score [1]: 7.05 | B-score [2]: 10.2

COc1c(C)c2c(c(O)c1C/C=C(\C)CCC(=O)O)C(=O)OC2 [Mycophenolic acid] (4 µM)
B-score [1]: -3.84 | B-score [2]: -6.55

CCN(CC)C(=S)NC(=S)c1ccc(C)cc1 (4 µM)
B-score [1]: -0.337 | B-score [2]: 34.8

CCC1CCc2c(sc(N)c2C#N)C1 (centres undefined) (4 µM)
B-score [1]: -8.99 | B-score [2]: -0.378

CN(Cc1cnc2nc(N)nc(N)c2n1)c1ccc(C(=O)N[C@@H](CCC(=O)O)C(=O)O)cc1 [Methotrexate] (4 µM)
B-score [1]: -4.72 | B-score [2]: -10.6

CC(C)c1ccc(-n2c(SCc3ccc([N+](=O)[O-])cc3)nnc2-c2ccc(C(C)(C)C)cc2)cc1 (4 µM)
B-score [1]: 2.98 | B-score [2]: 4.12

COC(=O)c1sc(S(C)(=O)=O)c(C#N)c1-c1cccs1 (4 µM)
B-score [1]: 8.77 | B-score [2]: 1.54

CN(C)C=C1SC(=O)N(c2ccccc2)C1=O (4 µM)
B-score [1]: 3.85 | B-score [2]: 2.63

Cc1cccc(NC(=O)Nc2ccc(C#N)cc2)n1 (4 µM)
B-score [1]: 5.18 | B-score [2]: 4.48

Cc1cccc(Cc2cnc(NC(=O)c3ccc(Br)cc3)s2)c1 (4 µM)
B-score [1]: -7.01 | B-score [2]: -10.7

Cc1noc(C)c1C(=O)NNC(=O)c1ccc(Cl)cc1 (4 µM)
B-score [1]: 14.1 | B-score [2]: 2.01

CC(C)(C)C(=O)C(=Cc1cccc([N+](=O)[O-])c1)n1cncn1 (4 µM)
B-score [1]: -7.11 | B-score [2]: -6.45

C=CCn1c(C)cc(C(=O)COn2nnc3ccc(Cl)cc32)c1C (4 µM)
B-score [1]: -6.49 | B-score [2]: -4.88

O=C(Nc1ccc(Cl)cc1)Nc1ccno1 (4 µM)
B-score [1]: 8.6 | B-score [2]: 0.123

CCc1cc2c(=O)c(-c3nc4ccccc4n3C)c(C)oc2cc1O (4 µM)
B-score [1]: -8 | B-score [2]: -10.5

CCOc1ccccc1NC(=O)C(NCc1cn2ccccc2n1)c1ccccc1 (centres undefined) (4 µM)
B-score [1]: -6.89 | B-score [2]: -1.31

NC(CCS(=O)(=O)c1ccc(Cl)cc1)=NOC(=O)c1ccccc1Cl (4 µM)
B-score [1]: 3.15 | B-score [2]: 6.32

CC(C)(C)c1ccc(-c2nnc(-c3ccccc3NC(=O)C=CC(=O)O)o2)cc1 (4 µM)
B-score [1]: 4.35 | B-score [2]: 2.4

O=c1c(Cc2ccccc2Cl)c(-c2ccccc2)oc2ccccc12 (4 µM)
B-score [1]: 2.44 | B-score [2]: 4.36

COc1ccccc1C1(O)CCN(CCCn2c3ccccc3c3ccccc32)CC1 [NNC 05-2090 hydrochloride] (4 µM)
B-score [1]: 2.91 | B-score [2]: 5.17

O=C1CSC(c2cccnc2)N1c1ccccc1 (centres undefined) (4 µM)
B-score [1]: 9.44 | B-score [2]: 14.6

Cc1onc(-c2ccccc2Cl)c1C(=O)N1CCN(c2cccc(Cl)c2)CC1 (4 µM)
B-score [1]: -9.62 | B-score [2]: -6.18
